Assay results from the supplement of paper PMC10928670.
MIC of N. gonorrhoeae strains collected 1971-2005, agar dilution (CLSI M07); ranges 0.03-64 mg/L (penicillin, azithromycin), 0.015-1 (cefixime, ceftriaxone), 0.5-256 (spectinomycin); higher = less susceptible. No active / inactive call per row; the paper counts cefixime and ceftriaxone above 0.25 and azithromycin above 1 mg/L as non-susceptible. The source says 'penicillin'; penicillin G is assumed. Isolates are numbered anew.

Assays:
Assay in all cases: Agar dilution by CLSI M07.
cefixime = compound: C=CC1=C(C(=O)O)N2C(=O)[C@@H](NC(=O)/C(=N\OCC(=O)O)c3csc(N)n3)[C@H]2SC1 [cefixime]
penicillin G = compound: CC1(C)S[C@@H]2[C@H](NC(=O)Cc3ccccc3)C(=O)N2[C@H]1C(=O)O [penicillin G]
spectinomycin = compound: CN[C@@H]1[C@H](O)[C@H](NC)[C@H]2O[C@@]3(O)C(=O)C[C@@H](C)O[C@H]3O[C@@H]2[C@H]1O [spectinomycin]
ceftriaxone = compound: CO/N=C(\C(=O)N[C@@H]1C(=O)N2C(C(=O)O)=C(CSc3nc(=O)c(O)nn3C)CS[C@H]12)c1csc(N)n1 [ceftriaxone]
azithromycin = compound: CC[C@H]1OC(=O)[C@H](C)[C@@H](O[C@H]2C[C@@](C)(OC)[C@@H](O)[C@H](C)O2)[C@H](C)[C@@H](O[C@@H]2O[C@H](C)C[C@H](N(C)C)[C@H]2O)[C@](C)(O)C[C@@H](C)CN(C)[C@H](C)[C@@H](O)[C@]1(C)O [azithromycin]

Test System | MIC (cefixime) | MIC (penicillin G) | MIC (spectinomycin) | MIC (ceftriaxone) | MIC (azithromycin)
Neisseria gonorrhoeae isolate 165 (GyrA: Wild type, ParC: Wild type, mtrR: Wild type, penA: Type II NonMosaic, A517G, ponA: Wild type, porB: G120N, A121D) | ≤ 0.015 mg/L | 32 mg/L | 16 mg/L | ≤ 0.015 mg/L | 0.25 mg/L
Neisseria gonorrhoeae isolate 166 (GyrA: D95N, ParC: Wild type, mtrR: Wild type, penA: Type I NonMosaic, ponA: Wild type, porB: Wild type) | ≤ 0.015 mg/L | 0.125 mg/L | 16 mg/L | ≤ 0.015 mg/L | ≤ 0.03 mg/L
Neisseria gonorrhoeae isolate 167 (GyrA: Wild type, ParC: Wild type, mtrR: G45D, penA: Type XXII NonMosaic, A517G, ponA: Wild type, porB: Wild type) | ≤ 0.015 mg/L | 2 mg/L | 8 mg/L | ≤ 0.015 mg/L | 0.06 mg/L
Neisseria gonorrhoeae isolate 168 (GyrA: Wild type, ParC: Wild type, mtrR: G45D, penA: Type XXII NonMosaic, A517G, ponA: Wild type, porB: Wild type) | ≤ 0.015 mg/L | 0.5 mg/L | 16 mg/L | ≤ 0.015 mg/L | 0.125 mg/L
Neisseria gonorrhoeae isolate 169 (GyrA: Wild type, ParC: Wild type, mtrR: Wild type, penA: Type II NonMosaic, A517G, ponA: Wild type, porB: G120K, A121G) | ≤ 0.015 mg/L | 0.25 mg/L | 32 mg/L | ≤ 0.015 mg/L | 0.06 mg/L
Neisseria gonorrhoeae isolate 170 (GyrA: Wild type, ParC: Wild type, mtrR: -35A Del, penA: Type XXII NonMosaic, A517G, ponA: Wild type, porB: G120D) | ≤ 0.015 mg/L | 0.25 mg/L | 16 mg/L | ≤ 0.015 mg/L | 0.25 mg/L
Neisseria gonorrhoeae isolate 171 (GyrA: Wild type, ParC: Wild type, mtrR: -35A Del, penA: Type XXII NonMosaic, A517G, ponA: L421P, porB: G120D) | ≤ 0.015 mg/L | 0.125 mg/L | 16 mg/L | ≤ 0.015 mg/L | ≤ 0.03 mg/L
Neisseria gonorrhoeae isolate 172 (GyrA: Wild type, ParC: Wild type, mtrR: G45D, penA: Type XXII NonMosaic, A517G, ponA: Wild type, porB: Wild type) | ≤ 0.015 mg/L | ≤ 0.03 mg/L | ≤ 0.5 mg/L | ≤ 0.015 mg/L | ≤ 0.03 mg/L
Neisseria gonorrhoeae isolate 173 (GyrA: Wild type, ParC: Wild type, mtrR: -35A Del, penA: Type XXII NonMosaic, A517G, ponA: L421P, porB: G120K, A121D) | 0.03 mg/L | 1 mg/L | 64 mg/L | 0.03 mg/L | 0.25 mg/L
Neisseria gonorrhoeae isolate 174 (GyrA: Wild type, ParC: Wild type, mtrR: -35A Del, penA: Type XXII NonMosaic, A517G, ponA: L421P, porB: G120D) | 0.03 mg/L | 4 mg/L | 16 mg/L | 0.03 mg/L | 0.5 mg/L
Neisseria gonorrhoeae isolate 175 (GyrA: Wild type, ParC: Wild type, mtrR: Wild type, penA: WT NonMosaic, ponA: Wild type, porB: porB1a) | ≤ 0.015 mg/L | ≤ 0.03 mg/L | 32 mg/L | ≤ 0.015 mg/L | 0.125 mg/L
Neisseria gonorrhoeae isolate 176 (GyrA: S91F, D95G, ParC: Wild type, mtrR: -35A Del, penA: Type V Nonmosaic, A517G, G543S, ponA: L421P, porB: G120K, A121D) | 0.03 mg/L | 4 mg/L | 64 mg/L | 0.03 mg/L | 0.5 mg/L
Neisseria gonorrhoeae isolate 177 (GyrA: S91F, D95G, ParC: Wild type, mtrR: -35A Del, penA: Type V Nonmosaic, A517G, G543S, ponA: L421P, porB: G120K, A121D) | 0.03 mg/L | 2 mg/L | 32 mg/L | 0.03 mg/L | 0.5 mg/L
Neisseria gonorrhoeae isolate 178 (GyrA: Wild type, ParC: Wild type, mtrR: -35A Del, penA: Type XII NonMosaic, A517G, ponA: L421P, porB: G120K, A121N) | 0.06 mg/L | 2 mg/L | 16 mg/L | 0.125 mg/L | 0.25 mg/L
Neisseria gonorrhoeae isolate 179 (GyrA: Wild type, ParC: Wild type, mtrR: G45D, penA: Type XXII NonMosaic, A517G, ponA: Wild type, porB: Wild type) | ≤ 0.015 mg/L | 0.25 mg/L | 16 mg/L | ≤ 0.015 mg/L | ≤ 0.03 mg/L
Neisseria gonorrhoeae isolate 180 (GyrA: Wild type, ParC: Wild type, mtrR: Wild type, penA: WT NonMosaic, ponA: Wild type, porB: Wild type) | ≤ 0.015 mg/L | ≤ 0.03 mg/L | 32 mg/L | ≤ 0.015 mg/L | 0.06 mg/L

Test System | MIC (cefixime) | MIC (penicillin G) | MIC (spectinomycin) | MIC (ceftriaxone) | MIC (azithromycin)
Neisseria gonorrhoeae isolate 181 (GyrA: Wild type, ParC: Wild type, mtrR: -35A Del, penA: Type II NonMosaic, A517G, ponA: Wild type, porB: porB1a) | ≤ 0.015 mg/L | > 64 mg/L | 16 mg/L | ≤ 0.015 mg/L | 0.125 mg/L
Neisseria gonorrhoeae isolate 182 (GyrA: Wild type, ParC: Wild type, mtrR: -35A Del, penA: Type XXII NonMosaic, A517G, ponA: L421P, porB: Wild type) | ≤ 0.015 mg/L | > 64 mg/L | 16 mg/L | ≤ 0.015 mg/L | 0.5 mg/L
Neisseria gonorrhoeae isolate 183 (GyrA: S91F, D95N, ParC: S88P, mtrR: -35A Del, G45D, penA: Type X Mosaic, N513Y, ponA: L421P, porB: G120K, A121N) | 0.5 mg/L | 4 mg/L | 32 mg/L | 0.125 mg/L | 0.125 mg/L
Neisseria gonorrhoeae isolate 184 (GyrA: Wild type, ParC: Wild type, mtrR: -35A Del, penA: Type IV NonMosaic, A517G, G543S, ponA: L421P, porB: G120K, A121D) | ≤ 0.015 mg/L | 0.25 mg/L | 16 mg/L | ≤ 0.015 mg/L | ≤ 0.03 mg/L
Neisseria gonorrhoeae isolate 185 (GyrA: Wild type, ParC: Wild type, mtrR: G45D, penA: Type XXII NonMosaic, A517G, ponA: Wild type, porB: G120A) | ≤ 0.015 mg/L | 0.25 mg/L | 16 mg/L | ≤ 0.015 mg/L | 0.25 mg/L
Neisseria gonorrhoeae isolate 186 (GyrA: Wild type, ParC: Wild type, mtrR: Wild type, penA: Type II NonMosaic, A517G, ponA: Wild type, porB: Wild type) | ≤ 0.015 mg/L | 0.5 mg/L | 16 mg/L | ≤ 0.015 mg/L | 0.25 mg/L
Neisseria gonorrhoeae isolate 187 (GyrA: Wild type, ParC: Wild type, mtrR: Wild type, penA: WT NonMosaic, ponA: Wild type, porB: porB1a) | ≤ 0.015 mg/L | ≤ 0.03 mg/L | 16 mg/L | ≤ 0.015 mg/L | 0.125 mg/L
Neisseria gonorrhoeae isolate 188 (GyrA: S91F, ParC: Wild type, mtrR: G45D, penA: Type IV NonMosaic, A517G, G543S, ponA: L421P, porB: G120K, A121D) | 0.03 mg/L | 2 mg/L | 32 mg/L | 0.03 mg/L | 0.06 mg/L
Neisseria gonorrhoeae isolate 189 (GyrA: Wild type, ParC: Wild type, mtrR: Wild type, penA: Type V Nonmosaic, A517G, G543S, ponA: L421P, porB: G120K, A121D) | 0.03 mg/L | 2 mg/L | 32 mg/L | 0.03 mg/L | 0.25 mg/L
Neisseria gonorrhoeae isolate 190 (GyrA: Wild type, ParC: Wild type, mtrR: -35A Del, G45D, penA: Type 46 NonMosaic, A517G, ponA: L421P, porB: G120D) | ≤ 0.015 mg/L | 1 mg/L | 8 mg/L | ≤ 0.015 mg/L | 0.125 mg/L
Neisseria gonorrhoeae isolate 191 (GyrA: Wild type, ParC: Wild type, mtrR: G45D, penA: Type XXII NonMosaic, A517G, ponA: Wild type, porB: G120D) | ≤ 0.015 mg/L | 0.25 mg/L | 16 mg/L | ≤ 0.015 mg/L | 0.06 mg/L
Neisseria gonorrhoeae isolate 192 (GyrA: Wild type, ParC: Wild type, mtrR: Wild type, penA: Type I NonMosaic, ponA: Wild type, porB: Wild type) | ≤ 0.015 mg/L | 2 mg/L | 32 mg/L | ≤ 0.015 mg/L | 0.25 mg/L
Neisseria gonorrhoeae isolate 193 (GyrA: Wild type, ParC: Wild type, mtrR: -35A Del, penA: Type IV NonMosaic, A517G, G543S, ponA: L421P, porB: G120K, A121D) | 0.03 mg/L | 4 mg/L | 8 mg/L | 0.06 mg/L | 0.25 mg/L
Neisseria gonorrhoeae isolate 194 (GyrA: Wild type, ParC: Wild type, mtrR: -35A Del, G45D, penA: Type XXII NonMosaic, A517G, ponA: L421P, porB: G120D) | ≤ 0.015 mg/L | 0.25 mg/L | 16 mg/L | ≤ 0.015 mg/L | 0.06 mg/L
Neisseria gonorrhoeae isolate 195 (GyrA: Wild type, ParC: Wild type, mtrR: G45D, penA: Type XXII NonMosaic, A517G, ponA: Wild type, porB: Wild type) | 0.03 mg/L | 0.25 mg/L | 16 mg/L | ≤ 0.015 mg/L | 0.06 mg/L
Neisseria gonorrhoeae isolate 196 (GyrA: Wild type, ParC: Wild type, mtrR: -35A Del, G45D, penA: Type II NonMosaic, A517G, ponA: Wild type, porB: G120K, A121D) | ≤ 0.015 mg/L | 1 mg/L | 16 mg/L | ≤ 0.015 mg/L | 0.125 mg/L
